Reference: PubChem BioAssay (Tox21)
Several values for one entry are separate records, joined by “and”; a condition that tells them apart may be missing. Equal values may be shown once. The shares of active, inactive and inconclusive entries below differ from those in the screen. Potencies beside an inconclusive call are fits to weak or partial responses and may not hold up. Activity calls are given as the source filed them. Calls follow the shape of the dose curve; as a rule, active = well fitted curve in the direction sought with a large enough effect in the repeat runs; inconclusive = weak or mixed curves; inactive = no such curve, though single readings can be large; an effect the other way counts as inactive or inconclusive.

Tested on: not listed separately
Experiment: Caspase-3/7 induction in HepG2 cells by small molecules, qHTS cell viability counter screen (AID 1346981); also: nearly all actives have a fitted effect of over 30% in size; as to activity change, negative = cytotoxicity: % is scaled to controls: 0 for no effect and ±100 for the full control effect
Conditions: CellTiter-Fluor fluorescence, 17 h; series mostly up to 92.4 µM; activity change, negative = cytotoxicity: at the top concentration
In short: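 CellTiter-Fluor fluorescence measured viability in the same wells used for Caspase-Glo 3/7. HepG2 (wild type) at 2,000 cells/well were pre-incubated 5 hr, dosed, and given reagent at 16 hr, with 1 hr further at 37C.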
Potency is read from the fitted curve at half-maximal effect; tags tell the direction and shape of the fitted curve.

Question: Which Potency does the source give for CC(C(O)c1ccccc1)N(C)CCOC(c1ccccc1)c1ccccc1 (stereo not given) here?
Answer: inconclusive: 33.5 µM [cytotoxic, single point]

Question: For c1cnc2c(n1)CCCC2, which “activity change, negative = cytotoxicity” value is on record?
Answer: inactive: 0.362%

Question: Which Potency does the source give for Nc1ccc(N=Nc2ccccc2)c(N)n1 here?
Answer: inconclusive: 8.68 µM [cytotoxic, full curve] and inconclusive: 21.7 µM [cytotoxic, partial curve] and active: 21.1 µM

Target: Nuclear receptor subfamily 1 group I member 2 (Homo sapiens) (UniProt O75469)
Chain of UniProt O75469 (O75469 whole entry, looked up): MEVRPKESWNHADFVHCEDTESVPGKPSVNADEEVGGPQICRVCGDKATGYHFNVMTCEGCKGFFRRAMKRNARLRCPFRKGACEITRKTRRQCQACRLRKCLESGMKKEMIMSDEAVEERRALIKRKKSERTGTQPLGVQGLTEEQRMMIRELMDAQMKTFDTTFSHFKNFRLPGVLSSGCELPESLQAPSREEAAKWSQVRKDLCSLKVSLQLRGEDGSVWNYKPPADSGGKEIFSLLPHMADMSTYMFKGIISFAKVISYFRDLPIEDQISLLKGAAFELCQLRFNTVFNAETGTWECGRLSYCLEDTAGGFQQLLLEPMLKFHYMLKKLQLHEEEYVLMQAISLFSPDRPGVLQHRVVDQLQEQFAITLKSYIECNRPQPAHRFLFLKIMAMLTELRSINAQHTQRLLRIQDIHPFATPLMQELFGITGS
Experiment: Human pregnane X receptor (PXR) small molecule agonists, qHTS assay (AID 1346982); also: nearly all actives have a fitted effect of over 35% in size; as to activation: % is scaled to controls: 0 for no effect and ±100 for the full control effect
Conditions: PXR-Luc HepG2, CYP3A4 luciferase reporter, 24 h; series mostly up to 92.4 µM; activation: at the top concentration
In short: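 Agonist mode: luminescence from ONE-Glo after 24 h compound exposure at 37C in HepG2 cells carrying hPXR-responsive CYP3A4 luciferase, plated in charcoal-stripped serum medium 5 h beforehand.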

Question: With CC(C)(C)NCCNC(C)(C)C as the compound, how does the “activation” value read?
Answer: inactive: 15.2%

Question: With Cn1cnc2ncnc(N)c21 as the compound, how does the “activation” value read?
Answer: inactive: 4.78% [at 42.5 µM]

Question: With CC1(C)O[C@@H]2C[C@H]3[C@@H]4C[C@H](F)C5=CC(=O)C=C[C@]5(C)[C@@]4(F)[C@@H](O)C[C@]3(C)[C@]2(C(=O)CO)O1 as the compound, how does the Potency read?
Answer: active: 24.3 µM and active: 8.41 µM

Question: For O=C1c2ccccc2C(=O)C1c1ccc(Br)cc1, which Potency is on record?
Answer: inconclusive: 33.5 µM [activator, single point]

Question: With NCc1ccc(S(N)(=O)=O)cc1 as the compound, how does the “activation” value read?
Answer: inactive: -3.75% [at 42.5 µM]

Question: For COc1ccccc1N1CCN(CCCCNC(=O)c2ccc(-c3ccc(C(C)=O)cc3)cc2)CC1, which Potency is on record?
Answer: inconclusive: 4.22 µM [activator, partial curve]

Question: With CC(=O)OC/C=C(/C)CCC=C(C)C as the compound, how does the “activation” value read?
Answer: inactive: 4.51%

Question: Which Potency does the source give for CN(C)CCN1C(=O)c2ccccc2N(C)c2ccccc21 here?
Answer: inconclusive: 33.5 µM [activator, partial curve]

Question: With C=CCN1CCc2nc(N)sc2CC1 as the compound, how does the “activation” value read?
Answer: inactive: -8.39% [at 42.5 µM]

Question: With c1ccc2sc(SN3CCOCC3)nc2c1 as the compound, how does the Potency read?
Answer: inconclusive: 29.8 µM [activator, single point]

Question: Which Potency does the source give for ClC/C=C\CCl here?
Answer: inconclusive: 63.7 µM [activator, partial curve, poor fit]

Question: For CCCCCCCC/C=C\CCCCCCCCCCCC(=O)O, which “activation” value is on record?
Answer: inactive: 24.2%

Question: Which Potency does the source give for C1=CC2C3C=CC(C3)C2C1 (stereo not given) here?
Answer: inconclusive: 67.3 µM [activator, single point]

Question: With CC(C)COC(=O)c1ccc(N)cc1 as the compound, how does the Potency read?
Answer: active: 21.1 µM

Question: With O=C(O)O as the compound, how does the activation read?
Answer: inactive: 4.39% [at 8.39 µM]

Question: Which “activation” value does the source give for CCCCCCCCCCCCSC#N here?
Answer: inactive: 20%

Question: For CN1CCc2cccc3c2[C@H]1Cc1ccc(O)c(O)c1-3, which Potency is on record?
Answer: inconclusive: 3.23 µM [activator, full curve, poor fit]

Question: With N#CCc1ccc(Cl)cc1Cl as the compound, how does the “activation” value read?
Answer: inactive: -8.71%

Question: With Cc1cccc(O)c1C as the compound, how does the Potency read?
Answer: inactive

Question: For CC1CCC(C(C)CS)CC1S (stereo not given), which “activation” value is on record?
Answer: inactive: 16.6%

Question: With CNc1ccc(O)cc1 as the compound, how does the Potency read?
Answer: inconclusive: 24.3 µM [activator, partial curve]

Question: For Cc1ccnc2c1NC(=O)c1cccnc1N2C1CC1, which Potency is on record?
Answer: inconclusive: 63.7 µM [activator, single point]

Question: With CN(C(=O)CN(CCO)CC(=O)N(C)C(C)(C)Cc1ccccc1)C(C)(C)Cc1ccccc1 as the compound, how does the Potency read?
Answer: active: 2.37 µM

Question: For CC1COC(=O)O1 (stereo not given), which Potency is on record?
Answer: inactive

Question: With CC(CC=O)CCCC(C)(C)O (stereo not given) as the compound, how does the “activation” value read?
Answer: inactive: 1.78%

Question: For O=Cc1ccc(F)cc1, which Potency is on record?
Answer: inconclusive: 24.3 µM [activator, single point]

Question: Which Potency does the source give for O=C(Nc1ncc([N+](=O)[O-])s1)c1cccs1 here?
Answer: active: 0.531 µM

Question: Which “activation” value does the source give for CC[N+](C)(CC)CCOC(=O)C1c2ccccc2Oc2ccccc21 here?
Answer: inactive: -6.66% [at 42.5 µM]

Question: With CCC(=O)/C=C/C1C(C)=CCCC1(C)C (stereo not given) as the compound, how does the Potency read?
Answer: inconclusive: 48.6 µM [activator, partial curve]

Question: Which Potency does the source give for CC(O)CN(CCN(CC(C)O)CC(C)O)CC(C)O (stereo not given) here?
Answer: inconclusive: 69.7 µM [activator, partial curve, poor fit]

Question: Which Potency does the source give for CCN1CCC[C@H]1CNC(=O)c1c(O)c(Cl)cc(Cl)c1OC here?
Answer: inconclusive: 29.8 µM [activator]

Question: Which Potency does the source give for CC(C)(C)NCC(O)c1ccc(O)c(CO)c1 (stereo not given) here?
Answer: inactive

Question: For CCCCC(CC)CN (stereo not given), which Potency is on record?
Answer: inconclusive: 69.8 µM [activator, single point]

Question: For CC(=O)c1ccc([N+](=O)[O-])cc1, which Potency is on record?
Answer: inconclusive: 54.5 µM [activator, partial curve]

Question: Which Potency does the source give for NC(=S)NC(N)=S here?
Answer: inconclusive: 61.1 µM [activator, single point]

Question: For CCCCOC(O)CC (stereo not given), which “activation” value is on record?
Answer: inactive: 6.05%

Question: With C/C=C/c1ccc(O)c(OC)c1 as the compound, how does the Potency read?
Answer: inconclusive: 61.1 µM [activator, partial curve, poor fit] and inconclusive: 61.1 µM [activator, partial curve]

Target: Nuclear receptor subfamily 1 group I member 2 (Rattus norvegicus) (UniProt Q9R1A7)
Chain of UniProt Q9R1A7 (Q9R1A7 whole entry, looked up): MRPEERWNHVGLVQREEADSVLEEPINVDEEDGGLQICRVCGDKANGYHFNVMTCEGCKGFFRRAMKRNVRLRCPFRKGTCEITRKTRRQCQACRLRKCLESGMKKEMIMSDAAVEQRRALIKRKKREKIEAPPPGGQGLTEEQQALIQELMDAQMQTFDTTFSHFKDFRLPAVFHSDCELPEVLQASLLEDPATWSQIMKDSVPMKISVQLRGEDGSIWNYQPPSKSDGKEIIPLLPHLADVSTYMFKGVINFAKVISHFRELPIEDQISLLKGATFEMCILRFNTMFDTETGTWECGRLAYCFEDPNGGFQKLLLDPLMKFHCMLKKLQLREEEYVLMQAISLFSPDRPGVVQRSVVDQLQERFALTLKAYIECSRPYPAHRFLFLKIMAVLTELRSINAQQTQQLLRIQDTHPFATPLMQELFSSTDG
Experiment: Rat pregnane X receptor (rPXR) activation by small molecules, qHTS assay (AID 1346983); also: nearly all actives have a fitted effect of over 20% in size
Conditions: rPXR luciferase reporter cells, One-Glo luminescence, 24 h; max activation: stronger effect = higher value
In short: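 Cell-based rPXR luciferase reporter assay, 2,000 cells per well, rested 5hr at 37 C before compound addition in DMSO, then 24 hr at 37 C. One-Glo reagent was added and luminescence read after 30 min at room temperature.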

Question: For CC1(C)O[C@@H]2C[C@H]3[C@@H]4C[C@H](F)C5=CC(=O)C=C[C@]5(C)[C@@]4(F)[C@@H](O)C[C@]3(C)[C@]2(C(=O)CO)O1, which Potency is on record?
Answer: active: 11.2 µM

Question: With O=C1c2ccccc2C(=O)C1c1ccc(Br)cc1 as the compound, how does the Potency read?
Answer: active: 11.2 µM

Question: Which Potency does the source give for c1ccc2sc(SN3CCOCC3)nc2c1 here?
Answer: active: 28.2 µM

Question: With CN(C(=O)CN(CCO)CC(=O)N(C)C(C)(C)Cc1ccccc1)C(C)(C)Cc1ccccc1 as the compound, how does the Potency read?
Answer: inconclusive: 11.2 µM [activator, partial curve, poor fit]

Question: For O=C(Nc1ncc([N+](=O)[O-])s1)c1cccs1, which Potency is on record?
Answer: inconclusive: 0.398 µM [activator, full curve, poor fit]
